Here are results for 56 compounds from paper PMC4336329 (PLoS ONE, 2015).

Hit rate of the full screen: of about 310,000 compounds, about 2,200 (0.71%) showed an effect of 50% or more. Effects have a minus sign here. This is one part of the list.

This test deals with human ether-à-go-go-related gene (hERG) potassium channel (human, UniProt Q12809). The test can be described thus: primary screen, population patch clamp on CHO cells stably expressing hERG.
Sequence of human ether-à-go-go-related gene (hERG) potassium channel (Q12809 whole entry, looked up): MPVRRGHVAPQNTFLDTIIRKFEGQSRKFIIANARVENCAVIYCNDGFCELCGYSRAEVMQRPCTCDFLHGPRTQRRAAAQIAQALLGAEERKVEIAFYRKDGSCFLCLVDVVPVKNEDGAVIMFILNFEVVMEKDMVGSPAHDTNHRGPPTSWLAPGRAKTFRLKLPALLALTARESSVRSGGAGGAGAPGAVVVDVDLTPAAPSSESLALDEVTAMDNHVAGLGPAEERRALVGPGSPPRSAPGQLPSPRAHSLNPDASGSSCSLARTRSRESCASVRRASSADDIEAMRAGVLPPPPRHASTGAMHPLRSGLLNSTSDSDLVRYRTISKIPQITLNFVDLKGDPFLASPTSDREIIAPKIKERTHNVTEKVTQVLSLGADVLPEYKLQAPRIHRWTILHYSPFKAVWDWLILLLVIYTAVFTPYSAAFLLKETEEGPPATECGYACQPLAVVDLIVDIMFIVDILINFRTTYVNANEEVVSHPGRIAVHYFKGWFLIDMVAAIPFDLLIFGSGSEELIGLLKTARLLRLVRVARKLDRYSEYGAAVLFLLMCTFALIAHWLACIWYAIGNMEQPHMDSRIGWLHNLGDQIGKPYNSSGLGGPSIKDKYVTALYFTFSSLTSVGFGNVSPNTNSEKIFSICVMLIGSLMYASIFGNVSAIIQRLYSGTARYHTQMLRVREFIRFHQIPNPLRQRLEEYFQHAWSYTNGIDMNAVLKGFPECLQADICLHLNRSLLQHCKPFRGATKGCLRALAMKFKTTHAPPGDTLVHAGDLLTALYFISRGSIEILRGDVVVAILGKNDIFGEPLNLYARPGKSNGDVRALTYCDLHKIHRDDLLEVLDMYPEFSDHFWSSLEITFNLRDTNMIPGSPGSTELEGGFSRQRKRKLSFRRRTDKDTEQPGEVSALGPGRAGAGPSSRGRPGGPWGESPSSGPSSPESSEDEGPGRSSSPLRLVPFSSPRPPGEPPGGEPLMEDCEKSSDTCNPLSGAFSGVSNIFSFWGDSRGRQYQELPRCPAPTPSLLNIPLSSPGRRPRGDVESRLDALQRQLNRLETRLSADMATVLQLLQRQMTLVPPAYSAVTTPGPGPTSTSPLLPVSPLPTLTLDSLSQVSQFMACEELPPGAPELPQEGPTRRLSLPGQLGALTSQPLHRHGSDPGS
On to `Cc1cc(C)c(S(=O)(=O)N2CCN(C(=O)c3ccc4c(c3)OCO4)CC2)c(C)c1`, for which the “hERG current change (%, negative = inhibition) at 1uM” value is 3.72%.
The same measure for `O=S(=O)(Oc1ccccc1C(=S)N1CCOCC1)c1ccc(Cl)cc1`: 10.3%; for `CCN1CCN(C(c2cccc(OC)c2)c2sc3nc(C)nn3c2O)CC1` (centres unmarked): 5.48%.
As for `O=C(O)Cn1cc(/C=N/NC(=O)c2cc3cc(Br)ccc3o2)c2ccccc21`, the figure is 7%.
As for `COC(=O)[C@]1(C)C[C@H]1[C@H](NP(=O)(c1ccccc1)c1ccccc1)c1ccccc1`, the figure is 7.6%.
On to `CCCOC(=O)c1ccc(OCC(O)CN2CCN(C(=O)c3ccccc3)CC2)cc1.Cl` (centres unmarked), for which the “hERG current change (%, negative = inhibition) at 1uM” value is listed as -19.5%.
For the compound `Cc1ccccc1N1CCN(C2CCCN(C(=O)c3noc4c3CCCC4)C2)CC1` (centres unmarked), the “hERG current change (%, negative = inhibition) at 1uM” value is on record as -17.7%.
For `COCC(C)NS(=O)(=O)c1ccc(C)cc1` (centres unmarked), the “hERG current change (%, negative = inhibition) at 1uM” value is recorded as 7.26%.
Take `OCc1cn(-c2ccccc2)nc1-c1ccc(-c2nn(-c3ccccc3)cc2CO)cc1`: the “hERG current change (%, negative = inhibition) at 1uM” value was 15%.
As for `CCCCN(C1CCS(=O)(=O)C1)S(=O)(=O)c1ccc(OC)c(OC)c1` (centres unmarked), the figure is 10.9%; as for `CN(C)c1ccc(C2C3=C(CCCC3=O)OC3=C2C(=O)CCC3)cc1`, 13.5%; as for `O=C(NC(=S)Nc1cc(S(=O)(=O)N2CCOCC2)ccc1N1CCOCC1)c1ccco1`, 0.416%.
Regarding `CCCOP(=O)(c1ccc(N(C)C)cc1)C(O)c1ccccc1OC` (centres unmarked), the “hERG current change (%, negative = inhibition) at 1uM” value came out at 11.6%.
The same measure for `Cn1cccc1C(=O)OCC(=O)NC1CCS(=O)(=O)C1` (centres unmarked): 4.52%; for `CC(C)CCNC(=O)C(=O)NC1CCCC1`: 5.33%.
As to `Cc1cc(=O)oc2cc(OC(C)C(=O)Nc3ccc(N4CCOCC4)cc3)ccc12` (centres unmarked), the “hERG current change (%, negative = inhibition) at 1uM” value is on record as 2.41%.
As for `COc1ccccc1C(=O)NNC(=O)c1ccc(C)cc1`, the figure is 6.68%; as for `Nc1cc(-c2ccc(Cl)cc2)nn1S(=O)(=O)c1cccc2nsnc12`, 8.97%; as for `CCCCC[C@H]1CN(Cc2ccc(OC)cc2)C(=O)[C@@H]1CC(=O)NCc1ccccc1`, 4.82%.
As for `CC(=O)Nc1ccc(NC(=O)Nc2ccc(C)c(C)c2)cc1`, the figure is -4.99%; as for `Cc1ccc(NC(=O)[C@@H]2CCCN2C(=O)c2cccs2)cc1S(=O)(=O)N1CCCCC1`, 8.35%; as for `Cc1ccccc1N(CC(=O)NCc1ccc2c(c1)OCO2)C(=O)CCC(=O)Nc1ccccn1`, 6.43%.
The same measure for `CCCc1cc2c(=O)n(NC(=O)c3nn(C)cc3[N+](=O)[O-])c(C)nc2s1`: 19%; for `COc1cccc(-c2noc(C3CCCN(C(=O)CC(C)(C)C)C3)n2)c1` (centres unmarked): 4.73%.
With `COc1cc(/C=N/Nc2nc(C)cc(C)n2)ccc1OC(=O)c1ccco1`, the “hERG current change (%, negative = inhibition) at 1uM” value was found to be 6.23%.
As for `Cc1cc(=O)oc2cc(OC(=O)CCCCCN3C(=O)c4ccccc4C3=O)ccc12`, the figure is 9.37%; as for `COC(=O)CN(c1ccc(C)cc1)S(=O)(=O)c1ccc(F)cc1`, 0.42%.
On to `O=C(COC(=O)CCOc1ccccc1)Nc1ccc(Cl)cn1`, for which the “hERG current change (%, negative = inhibition) at 1uM” value turned out to be 5.03%.
As for `COc1ccc(N(CC(=O)NCc2ccco2)S(=O)(=O)c2ccc(C)cc2)cc1OC`, the figure is 11.8%; as for `O=C(COC(=O)C1CCN(c2ccc(C(F)(F)F)cn2)CC1)c1cccc(Br)c1`, 21.3%; as for `CCc1nc2cccnc2n1-c1ccc(CC(=O)O)cc1`, 13.3%.
`Cc1ccc(-c2csc(NC(=O)CSc3nc4ccccc4o3)n2)cc1`: the “hERG current change (%, negative = inhibition) at 1uM” value was 9.89%.
With `O=C(CSc1ncn[nH]1)Nc1ccc2c(c1)OCCO2`, the “hERG current change (%, negative = inhibition) at 1uM” value is on record as -23.2%.
As for `CCC(=Nc1cccc(C(F)(F)F)c1)c1c(O)n(C)c(=O)n(C)c1=O`, the figure is 8.92%.
The same measure for `NS(=O)(=O)c1ccc(NN=C2CCCCC2)c([N+](=O)[O-])c1`: 7.06%; for `O=C(COC(=O)CCC(=O)c1cccs1)Nc1cccc(S(=O)(=O)N2CCOCC2)c1`: 1.17%; for `CCNc1nc(SCc2ccccc2)nc(N2CCOCC2)n1`: 6.9%.
The same measure for `O=C(c1cccs1)N1N=C(c2ccc(O)cc2)CC1c1ccccc1` (centres unmarked): 11.4%; for `O=C(COC(=O)C12CC3CC(CC(C3)C1)C2)NCCc1ccccc1`: -0.192%.
In the case of `O=C(Nc1nc2ccc(F)cc2s1)c1cccs1`, the “hERG current change (%, negative = inhibition) at 1uM” value turned out to be 5.29%.
As for `Cc1ccc(-c2cc(C(=O)NCc3ccccn3)no2)cc1`, the “hERG current change (%, negative = inhibition) at 1uM” value was determined as 6.43%.
The same measure for `CCOC(=O)c1ccc(NCc2ccc(N(C)C)cc2)cc1`: 9.37%.
The same measure for `CCOc1ccc(OCC(=O)OCC(=O)N(CC(C)C)c2c(N)n(Cc3ccccc3)c(=O)[nH]c2=O)cc1`: 5.08%; for `Cc1ccc(-c2cc(-c3ccc(C)cc3)[n+](-c3ccc(C(=O)O)cc3)c(-c3ccc(C)cc3)c2)cc1.[O-][Cl+3]([O-])([O-])[O-]`: 17.7%.
In the case of `O=C1CCCCC1`, the “hERG current change (%, negative = inhibition) at 1uM” value was found to be 9.22%.
The same measure for `COc1cc2c(cc1NC(=O)c1ccccc1F)CCCC2`: 14.9%; for `CNc1cc([N+](=O)[O-])ccc1N/C=C/C(=O)c1ccc2c(c1)OCO2`: 11.7%.
The same measure for `CCCCN1C(=O)c2cccc3cc(O)cc(c23)C1=O`: 3.95%.
The same measure for `Cl.O=C(CCN1CCC(c2ccccc2)C1)c1ccccc1` (centres unmarked): -22.8%; for `CN(C)c1ccc(/C=N/NC(=O)CCCO)cc1`: 12.6%; for `NS(=O)(=O)c1cc2c(cc1Cl)NC(c1ccccc1OCC(=O)O)NS2(=O)=O` (centres unmarked): 16.8%.
As to `O=C(CCO)c1ccc(O)cc1`, the “hERG current change (%, negative = inhibition) at 1uM” value was 17.1%.
The same measure for `CCn1c2ccccc2c2cc(NC(=O)CC(C)=O)ccc21`: 12.6%; for `O=C(Nc1cccc(S(=O)(=O)N2CCCC2)c1)c1cccnc1`: 10.7%.
The same measure for `CC(NC(=O)Cc1ccsc1)c1ccc(S(N)(=O)=O)cc1` (centres unmarked): 11.7%.
As for `COc1ccc(/C=N/NC(=O)c2ccc(OC)c(OC)c2)cc1COc1c(F)c(F)c(F)c(F)c1F`, the figure is 13.4%.
